# This is one part of the list.
# B1: CLEC7A (Homo sapiens), Q9BXN2 (protein)
# chain: MEYHPDLENLDEDGYTQLHFDSQSNTRIAVVSEKGSCAASPPWRLIAVILGILCLVILVIAVVLGTMAIWRSNSGSNTLENGYFLSRNKENHSQPTQSSLEDSVTPTKAVKTTGVLSSPCPPNWIIYEKSCYLFSMSLNSWDGSKRQCWQLGSNLLKIDSSNELGFIVKQVSSQPDNSFWIGLSRPQTEVPWLWEDGSTFSSNLFQIRTTATQENPSPNCVWIHVSVIYDQLCSVPSYSICEKKFSM
# Assays:
# Experiment in all cases: glycan array binding signal (z-score within array); higher = stronger binding
# Details in all cases: glycan notation: IUPAC condensed, linker removed
# Gal(b1-4)Glc = target: Gal(b1-4)Glc
# Method in brief: (§1)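 Glycan array data were curated from 3228 arrays in the Consortium for Functional Glycomics database and kept only where the protein sequence was available. Glycan names were converted to IUPAC-condensed notation, and columns mapping to the same glycan were averaged. The binding signal is a within-array Z-score, averaged across arrays of the same protein sequence at different concentrations or buffers and across linkers. Negative Z-scores can be read as non-binding.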
# Gal(b1-4)Glc6S = target: Gal(b1-4)Glc6S
# Method in brief: as §1
# Gal(b1-4)GlcNAc = target: Gal(b1-4)GlcNAc
# Method in brief: as §1
# [1] = target: Gal(b1-4)GlcNAc(b1-2)Man(a1-3)[Gal(b1-4)GlcNAc(b1-2)Man(a1-6)]Man(b1-4)GlcNAc(b1-4)GlcNAc
# Method in brief: as §1
# [2] = target: Gal(b1-4)GlcNAc(b1-3)Gal(b1-4)Glc
# Method in brief: as §1
# [3] = target: Gal(b1-4)GlcNAc(b1-3)Gal(b1-4)GlcNAc
# Method in brief: as §1
# [4] = target: Gal(b1-4)GlcNAc(b1-3)Gal(b1-4)GlcNAc(b1-3)Gal(b1-4)GlcNAc
# Method in brief: as §1
# [5] = target: Gal(b1-4)GlcNAc(b1-3)Gal(b1-4)[Fuc(a1-3)]GlcNAc(b1-3)Gal(b1-4)[Fuc(a1-3)]GlcNAc
# Method in brief: as §1
# [6] = target: Gal(b1-4)GlcNAc(b1-3)GalNAc
# Method in brief: as §1
# [7] = target: Gal(b1-4)GlcNAc(b1-3)[Gal(b1-4)GlcNAc(b1-6)]GalNAc
# Method in brief: as §1
# [8] = target: Gal(b1-4)GlcNAc(b1-6)Gal(b1-4)GlcNAc(b1-6)GalNAc
# Method in brief: as §1
# [9] = target: Gal(b1-4)GlcNAc(b1-6)GalNAc
# Method in brief: as §1
# [10] = target: Gal(b1-4)GlcNAc(b1-6)[Gal(b1-3)]GalNAc
# Method in brief: as §1
# Gal3S(b1-3)GalNAc = target: Gal3S(b1-3)GalNAc
# Method in brief: as §1
# Gal3S(b1-3)GlcNAc = target: Gal3S(b1-3)GlcNAc
# Method in brief: as §1
# [11] = target: Gal3S(b1-3)[Fuc(a1-4)]GlcNAc
# Method in brief: as §1
# Gal3S(b1-4)Glc = target: Gal3S(b1-4)Glc
# Method in brief: as §1
# Gal3S(b1-4)Glc6S = target: Gal3S(b1-4)Glc6S
# Method in brief: as §1
# Gal3S(b1-4)GlcNAc = target: Gal3S(b1-4)GlcNAc
# Method in brief: as §1
# Gal3S(b1-4)GlcNAc6S = target: Gal3S(b1-4)GlcNAc6S
# Method in brief: as §1
# Gal3S6S(b1-4)GlcNAc = target: Gal3S6S(b1-4)GlcNAc
# Method in brief: as §1
# Gal3S6S(b1-4)GlcNAc6S = target: Gal3S6S(b1-4)GlcNAc6S
# Method in brief: as §1
# Gal4S(b1-4)GlcNAc = target: Gal4S(b1-4)GlcNAc
# Method in brief: as §1
# Gal4S6S(b1-4)GlcNAc = target: Gal4S6S(b1-4)GlcNAc
# Method in brief: as §1
# Gal6S(b1-4)Glc = target: Gal6S(b1-4)Glc
# Method in brief: as §1
# Gal6S(b1-4)Glc6S = target: Gal6S(b1-4)Glc6S
# Method in brief: as §1
# Gal6S(b1-4)GlcNAc = target: Gal6S(b1-4)GlcNAc
# Method in brief: as §1
# GalNAc(a1-3)Gal = target: GalNAc(a1-3)Gal
# Method in brief: as §1
# GalNAc(a1-3)GalNAc = target: GalNAc(a1-3)GalNAc
# Method in brief: as §1
# [12] = target: GalNAc(b1-3)Gal(a1-4)Gal(b1-4)GlcNAc
# Method in brief: as §1
# GalNAc(b1-3)GalNAc = target: GalNAc(b1-3)GalNAc
# Method in brief: as §1
# GalNAc(b1-4)GlcNAc = target: GalNAc(b1-4)GlcNAc
# Method in brief: as §1
# Glc(a1-4)Glc = target: Glc(a1-4)Glc
# Method in brief: as §1
# Glc(a1-6)Glc(a1-6)Glc = target: Glc(a1-6)Glc(a1-6)Glc
# Method in brief: as §1
# Glc(b1-4)Glc = target: Glc(b1-4)Glc
# Method in brief: as §1
# Glc(b1-6)Glc = target: Glc(b1-6)Glc
# Method in brief: as §1
# GlcA(b1-3)Gal = target: GlcA(b1-3)Gal
# Method in brief: as §1
# GlcA(b1-6)Gal = target: GlcA(b1-6)Gal
# Method in brief: as §1
binder,measurement,setting,value
B1,glycan array binding signal (z-score),Gal(b1-4)Glc,-0.184
same,glycan array binding signal (z-score),Gal(b1-4)Glc6S,0.451
same,glycan array binding signal (z-score),Gal(b1-4)GlcNAc,-0.319
same,glycan array binding signal (z-score),[1],-1.03
same,glycan array binding signal (z-score),[2],0.542
same,glycan array binding signal (z-score),[3],-0.463
same,glycan array binding signal (z-score),[4],0.389
same,glycan array binding signal (z-score),[5],-0.174
same,glycan array binding signal (z-score),[6],0.267
same,glycan array binding signal (z-score),[7],-0.587
same,glycan array binding signal (z-score),[8],-0.596
same,glycan array binding signal (z-score),[9],-1.14
same,glycan array binding signal (z-score),[10],-0.032
same,glycan array binding signal (z-score),Gal3S(b1-3)GalNAc,0.674
same,glycan array binding signal (z-score),Gal3S(b1-3)GlcNAc,0.073
same,glycan array binding signal (z-score),[11],0.601
same,glycan array binding signal (z-score),Gal3S(b1-4)Glc,-0.123
same,glycan array binding signal (z-score),Gal3S(b1-4)Glc6S,1.16
same,glycan array binding signal (z-score),Gal3S(b1-4)GlcNAc,0.507
same,glycan array binding signal (z-score),Gal3S(b1-4)GlcNAc6S,1.21
same,glycan array binding signal (z-score),Gal3S6S(b1-4)GlcNAc,0.674
same,glycan array binding signal (z-score),Gal3S6S(b1-4)GlcNAc6S,5.19
same,glycan array binding signal (z-score),Gal4S(b1-4)GlcNAc,0.122
same,glycan array binding signal (z-score),Gal4S6S(b1-4)GlcNAc,0.177
same,glycan array binding signal (z-score),Gal6S(b1-4)Glc,-0.519
same,glycan array binding signal (z-score),Gal6S(b1-4)Glc6S,0.699
same,glycan array binding signal (z-score),Gal6S(b1-4)GlcNAc,-0.797
same,glycan array binding signal (z-score),GalNAc(a1-3)Gal,-0.246
same,glycan array binding signal (z-score),GalNAc(a1-3)GalNAc,-0.246
same,glycan array binding signal (z-score),[12],0.773
same,glycan array binding signal (z-score),GalNAc(b1-3)GalNAc,-0.124
same,glycan array binding signal (z-score),GalNAc(b1-4)GlcNAc,0.478
same,glycan array binding signal (z-score),Glc(a1-4)Glc,-0.126
same,glycan array binding signal (z-score),Glc(a1-6)Glc(a1-6)Glc,-0.407
same,glycan array binding signal (z-score),Glc(b1-4)Glc,0.288
same,glycan array binding signal (z-score),Glc(b1-6)Glc,-0.161
same,glycan array binding signal (z-score),GlcA(b1-3)Gal,-0.277
same,glycan array binding signal (z-score),GlcA(b1-6)Gal,0.628
